Here are results for 58 compounds from article PMC4336329 (PLoS ONE, 2015).

The campaign covered roughly 310,000 compounds. About 2,200 (0.71%) showed an effect of 50% or more. Effects have a minus sign here. This is one part of the list.

For this assay, the target named is human ether-à-go-go-related gene (hERG) potassium channel (human, UniProt Q12809). Briefly: primary screen, population patch clamp on CHO cells stably expressing hERG.
Chain of human ether-à-go-go-related gene (hERG) potassium channel (Q12809 whole entry, looked up): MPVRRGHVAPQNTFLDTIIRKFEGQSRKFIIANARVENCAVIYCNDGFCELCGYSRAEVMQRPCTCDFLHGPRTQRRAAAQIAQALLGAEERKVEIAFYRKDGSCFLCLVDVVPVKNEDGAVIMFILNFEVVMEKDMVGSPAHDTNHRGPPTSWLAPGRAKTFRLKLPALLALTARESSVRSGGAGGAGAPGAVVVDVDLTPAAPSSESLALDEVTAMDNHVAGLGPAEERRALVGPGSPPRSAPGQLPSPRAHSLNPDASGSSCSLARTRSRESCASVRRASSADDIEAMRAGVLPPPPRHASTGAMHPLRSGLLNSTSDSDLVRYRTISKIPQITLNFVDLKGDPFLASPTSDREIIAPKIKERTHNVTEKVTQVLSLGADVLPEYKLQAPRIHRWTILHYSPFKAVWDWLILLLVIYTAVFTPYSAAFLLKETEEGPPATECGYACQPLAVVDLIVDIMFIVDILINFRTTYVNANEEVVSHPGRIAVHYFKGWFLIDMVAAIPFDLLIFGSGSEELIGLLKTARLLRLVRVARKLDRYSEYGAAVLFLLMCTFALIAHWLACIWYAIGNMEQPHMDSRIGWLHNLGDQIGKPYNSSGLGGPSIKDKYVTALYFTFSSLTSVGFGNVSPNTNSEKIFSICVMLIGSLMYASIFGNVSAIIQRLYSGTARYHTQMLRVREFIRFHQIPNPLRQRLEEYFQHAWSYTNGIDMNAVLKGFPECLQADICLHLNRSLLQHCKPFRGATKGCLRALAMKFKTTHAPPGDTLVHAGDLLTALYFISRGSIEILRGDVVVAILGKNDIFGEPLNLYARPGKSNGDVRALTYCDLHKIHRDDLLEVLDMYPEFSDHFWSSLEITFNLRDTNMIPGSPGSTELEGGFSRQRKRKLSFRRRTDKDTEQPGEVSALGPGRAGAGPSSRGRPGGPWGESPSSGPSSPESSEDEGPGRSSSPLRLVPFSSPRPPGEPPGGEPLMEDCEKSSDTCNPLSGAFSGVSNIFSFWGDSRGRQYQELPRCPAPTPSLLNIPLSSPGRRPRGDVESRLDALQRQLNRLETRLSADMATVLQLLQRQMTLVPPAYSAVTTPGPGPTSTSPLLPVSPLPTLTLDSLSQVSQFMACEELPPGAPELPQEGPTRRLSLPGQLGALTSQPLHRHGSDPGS
In the case of `CCOc1ccc(S(=O)(=O)NCCC(=O)N2CCCN(C)CC2)cc1`, the “hERG current change (%, negative = inhibition) at 1uM” value came to 8.1%.

With `Cc1ccc(NC(=O)CNC(=O)Cc2cccc3ccccc23)nc1`, the “hERG current change (%, negative = inhibition) at 1uM” value came out at 2.51%.

Turning to `COc1ccccc1CN=C1NC(=O)C(CC(=O)Nc2ccc(C(C)=O)cc2)S1` (stereo not shown), the “hERG current change (%, negative = inhibition) at 1uM” value amounted to 1.73%.

Turning to `COc1ccccc1CNC(=O)C1CCC(CNC(=O)[C@@H]2Cc3ccccc3CN2)CC1` (stereo partly shown), the “hERG current change (%, negative = inhibition) at 1uM” value was determined as 10.3%.

Consider `CN(C)CCNC(=O)C1CC(=O)N(c2ccc(F)c(Cl)c2)C1` (stereo not shown), for which the “hERG current change (%, negative = inhibition) at 1uM” value is -12%.

For the compound `CCCCn1c(SCC(=O)Nc2cc(C)on2)nc2cc(S(N)(=O)=O)ccc21`, the “hERG current change (%, negative = inhibition) at 1uM” value is 7.31%.

With `N/C(=N\OC(=O)c1ccc2c(c1)OCO2)c1cccnc1`, the “hERG current change (%, negative = inhibition) at 1uM” value is -3.99%.

In the case of `CCOc1ccccc1C(=O)NC1CC2CCCC(C1)N2Cc1ccc(C)cc1` (stereo not shown), the “hERG current change (%, negative = inhibition) at 1uM” value is -43.6%.

On to `CCOc1cc(C(=O)CCC(=O)OCC(=O)NC(=O)NCC(C)C)ccc1O`, for which the “hERG current change (%, negative = inhibition) at 1uM” value is on record as -4.66%.

`O=C(O)c1c(NC(=O)N2CCOCC2)sc2c1CCCC2`: the “hERG current change (%, negative = inhibition) at 1uM” value is on record as 13.9%.

As for `O=C(CN1CCc2ccccc2C1)Nc1ccc(F)cc1`, the “hERG current change (%, negative = inhibition) at 1uM” value came out at 14.6%.

In the case of `COc1ccc(/C=C2\C(=O)NC(=O)N(Cc3ccccc3)C2=O)c(OC)c1OC`, the “hERG current change (%, negative = inhibition) at 1uM” value was determined as 8.15%.

As to `COC(=O)CSc1nc2nc(C)cc(C)n2n1`, the “hERG current change (%, negative = inhibition) at 1uM” value is listed as 5.07%.

In the case of `Cc1ccc2nc(SCC(=O)N3CCCCC3)nc(=O)n2c1`, the “hERG current change (%, negative = inhibition) at 1uM” value is 12.4%.

For `O=[N+]([O-])c1ccc(Sc2nnnn2-c2ccccc2)c(Cl)c1`, the “hERG current change (%, negative = inhibition) at 1uM” value is recorded as -29.8%.

Take `CN1CCN(c2ncnc3nc[nH]c23)CC1`: the “hERG current change (%, negative = inhibition) at 1uM” value is 16.9%.

Consider `COC(=O)/C(C(C)=O)=C(/C=C/C=C/N(C)C)N(C)C`, for which the “hERG current change (%, negative = inhibition) at 1uM” value stood at 12.9%.

As for `Cc1ccc(-n2nnnc2SCC(=O)NC(C(=O)O)(c2ccccc2)c2ccccc2)cc1C`, the “hERG current change (%, negative = inhibition) at 1uM” value was determined as 13.1%.

For `COc1ccc(-c2ccc(C)cc2)cc1[C@H]1[C@@H]2C=CCC[C@@]2(C)C(=O)N1Cc1ccccc1`, the “hERG current change (%, negative = inhibition) at 1uM” value amounted to 10.9%.

Consider `O=C(O)C[C@H]1c2cc(F)ccc2S(=O)(=O)N1C1CCCCC1`, for which the “hERG current change (%, negative = inhibition) at 1uM” value turned out to be 12.2%.

Take `CC(C)(C)OC(=O)N/N=C/c1cccn1-c1ccc([N+](=O)[O-])cc1`: the “hERG current change (%, negative = inhibition) at 1uM” value is reported as 9.32%.

On to `CS(=O)(=O)N(Cc1ccccc1)c1ccc(C(=O)NCc2cccnc2)cc1`, for which the “hERG current change (%, negative = inhibition) at 1uM” value was determined as 3.21%.

For `O=C(NCCNc1ccccc1[N+](=O)[O-])c1cc(F)c(F)cc1Cl`, the “hERG current change (%, negative = inhibition) at 1uM” value is reported as -2.68%.

As for `COc1ccc(CCNC(=O)c2ccncc2)cc1OC`, the “hERG current change (%, negative = inhibition) at 1uM” value came to 8.59%.

Regarding `Cc1cccc(N2C(=O)NC(=O)/C(=C\c3cnn(-c4ccccc4)c3)C2=O)c1`, the “hERG current change (%, negative = inhibition) at 1uM” value came out at 12.6%.

On to `COc1ccc(CCNC(=O)c2ccc(=O)[nH]n2)cc1OC`, for which the “hERG current change (%, negative = inhibition) at 1uM” value was 6.01%.

As to `COc1ccc(CCC(=O)Nc2ccc3c(c2)OCCO3)cc1`, the “hERG current change (%, negative = inhibition) at 1uM” value is recorded as 4.52%.

As for `CCOc1ccc(C(=O)NCC2CCCO2)cc1` (stereo not shown), the “hERG current change (%, negative = inhibition) at 1uM” value is given as -1.75%.

Turning to `O=C(CNC(=O)c1ccc(Br)o1)NCCc1ccc(F)cc1`, the “hERG current change (%, negative = inhibition) at 1uM” value was 12.6%.

For the compound `COc1ccc(OC)c(/C(C)=N/Nc2ccc(C(=O)O)cc2)c1.O=S(=O)(O)O`, the “hERG current change (%, negative = inhibition) at 1uM” value came out at 7.97%.

With `O=C(NN=C1CCCC1)c1ccc(O)cc1`, the “hERG current change (%, negative = inhibition) at 1uM” value was determined as 13.5%.

Regarding `COc1ccccc1OCC#CCn1ccnc1.O=C(O)C(=O)O`, the “hERG current change (%, negative = inhibition) at 1uM” value was 6.59%.

Take `O=C(COC(=O)c1ccc(S(=O)(=O)N2CCOCC2)cc1)NC1CCCCCC1`: the “hERG current change (%, negative = inhibition) at 1uM” value came to 10.1%.

Regarding `CC(O)[C@H]1CNC(=O)C(=O)N1CCc1cccc2ccccc12` (stereo partly shown), the “hERG current change (%, negative = inhibition) at 1uM” value is listed as 20.1%.

As to `Cc1ccccc1NC(=O)CSc1nnc(-c2ccccn2)o1`, the “hERG current change (%, negative = inhibition) at 1uM” value turned out to be 10.6%.

On to `CCC(C)NC(=O)CC1Oc2ccc(Cl)cc2NC1=O` (stereo not shown), for which the “hERG current change (%, negative = inhibition) at 1uM” value is on record as 12.6%.

Regarding `NC(=O)c1oc2ccccc2c1NC(=O)Cc1ccccc1`, the “hERG current change (%, negative = inhibition) at 1uM” value came out at 17.4%.

`Cn1ncc2c(NNC(=O)c3ccc(Cl)c(Cl)c3)ncnc21`: the “hERG current change (%, negative = inhibition) at 1uM” value is listed as 0.227%.

In the case of `Cc1cccc(-c2nnc(SCC3CNC(=O)O3)n2-c2ccc(Cl)cc2)c1` (stereo not shown), the “hERG current change (%, negative = inhibition) at 1uM” value is listed as -1.51%.

With `O=C(NCc1ccccc1)C1CCC(CNS(=O)(=O)c2cccs2)CC1` (stereo not shown), the “hERG current change (%, negative = inhibition) at 1uM” value is on record as 13.7%.

For the compound `Cc1cc(C)c(S(=O)(=O)N2CCN(C(=O)c3ccc(-n4cncn4)c([N+](=O)[O-])c3)CC2)c(C)c1`, the “hERG current change (%, negative = inhibition) at 1uM” value is listed as -14.4%.

Regarding `CC(C)CN(C(=O)COC(=O)CNC(=O)c1ccc(Cl)cc1)C1CCS(=O)(=O)C1` (stereo not shown), the “hERG current change (%, negative = inhibition) at 1uM” value was found to be 9.16%.

Turning to `COc1ccc(NC(=O)NC23CC4(C)CC(C)(CC(C)(C4)C2)C3)cc1OC`, the “hERG current change (%, negative = inhibition) at 1uM” value is 16.6%.

Turning to `Cc1c(CC(=O)O)c(=O)oc2cc(OCc3nn[nH]n3)ccc12`, the “hERG current change (%, negative = inhibition) at 1uM” value turned out to be 4.82%.

For `CSc1nnc2ccc(-c3cccs3)nn12`, the “hERG current change (%, negative = inhibition) at 1uM” value came to 6.02%.

As to `C[C@H](NC(=O)c1ccccc1)C(=O)OCC(=O)Nc1ccc2c(c1)OCO2`, the “hERG current change (%, negative = inhibition) at 1uM” value is listed as 3.98%.

Turning to `Cn1c(SCCOc2ccc(Cl)cc2)nnc1-c1ccncc1`, the “hERG current change (%, negative = inhibition) at 1uM” value was -17.6%.

On to `COc1ccccc1Cn1c(=O)oc2ccc(C)cc21`, for which the “hERG current change (%, negative = inhibition) at 1uM” value turned out to be 11.7%.

In the case of `COc1ccc(C2C(C(=O)c3ccco3)=C(O)C(=O)N2CC2CCCO2)cc1` (stereo not shown), the “hERG current change (%, negative = inhibition) at 1uM” value is 6.45%.

In the case of `C=CCc1cccc2cc(C(=O)N3CCN(C(=O)c4ccco4)CC3)c(=O)oc12`, the “hERG current change (%, negative = inhibition) at 1uM” value was 2.68%.

Consider `O=C1CSC(c2cccnc2)N1Cc1ccc(Cl)c(Cl)c1` (stereo not shown), for which the “hERG current change (%, negative = inhibition) at 1uM” value was 4.43%.

Turning to `O=C(/C=C/c1ccccc1[N+](=O)[O-])NCC1CCCO1` (stereo not shown), the “hERG current change (%, negative = inhibition) at 1uM” value came to 8.39%.

Take `CCCOc1ccc(-c2nnn(CC(=O)N3CCCC(C)C3)n2)cc1` (stereo not shown): the “hERG current change (%, negative = inhibition) at 1uM” value was found to be 10.7%.

As for `CCOC(=O)c1cc2c(=O)n3ccccc3nc2n(Cc2ccccc2)c1=N`, the “hERG current change (%, negative = inhibition) at 1uM” value was -68.9%.

For the compound `CCOc1ccc(-c2nn[nH]n2)cc1OCC`, the “hERG current change (%, negative = inhibition) at 1uM” value was determined as 8.59%.

`Cc1cc2ccccn2c1C(=O)c1ccc([N+](=O)[O-])o1`: the “hERG current change (%, negative = inhibition) at 1uM” value is given as 6.81%.

For the compound `CCNc1nc2c(c(=O)[nH]c(=O)n2C)n1CC(C)C`, the “hERG current change (%, negative = inhibition) at 1uM” value is 3.11%.

Take `Cc1ccc(C(=O)O/N=C(\N)c2ccccn2)c(Cl)c1`: the “hERG current change (%, negative = inhibition) at 1uM” value was found to be 13%.
